Laboratory results taken from PubChem BioAssay AID1745853 (National Center for Advancing Translational Sciences (NCATS), 2022).
This is one part of the list. Shown are side measurements of this screen, not its main read-out; they come without a call.

How the values were obtained:
Test in all cases: Primary Screen for Target Class Profiling of Small Molecule Inhibitors of Methyltransferases
[1] = target: Glycine N-methyltransferase (Homo sapiens) (UniProt Q14749); details: purified enzyme, MTase-Glo SAH luminescence; measured here: GNMT inhibition; at 40 µM; stronger effect = lower value
Procedure, shortened: (§1)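 Each enzyme was reacted with SAM and its substrate, with compounds tested once at 40 uM; SAH formed was read by MTase-Glo luminescence.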

[2] = target: Guanidinoacetate N-methyltransferase (Homo sapiens) (UniProt Q14353); details: purified enzyme, MTase-Glo SAH luminescence; measured here: GAMT inhibition; at 40 µM; stronger effect = lower value
Procedure, shortened: as §1

[3] = target: Histamine N-methyltransferase (Homo sapiens) (UniProt P50135); details: purified enzyme, MTase-Glo SAH luminescence; measured here: HNMT inhibition; at 40 µM; stronger effect = lower value
Procedure, shortened: as §1

[4] = target: Nicotinamide N-methyltransferase (Homo sapiens) (UniProt P40261); details: purified enzyme, MTase-Glo SAH luminescence; measured here: NNMT inhibition; at 40 µM; stronger effect = lower value
Procedure, shortened: as §1

[5] = target: Phenylethanolamine N-methyltransferase (Homo sapiens) (UniProt P11086); details: purified enzyme, MTase-Glo SAH luminescence; measured here: PNMT inhibition; at 40 µM; stronger effect = lower value
Procedure, shortened: as §1
% is scaled to controls: 0 for no effect and ±100 for the full control effect.

| SMILES | activity change, negative = inhibition [1] | activity change, negative = inhibition [2] | activity change, negative = inhibition [3] | activity change, negative = inhibition [4] | activity change, negative = inhibition [5] |
| --- | --- | --- | --- | --- | --- |
| CNC(=O)c1cc(C2CC2)nc2onc(C3CCCN3C(C)=O)c12 (stereo not given) | -2.06% | -0.627% | 1.02% | -2.73% | -0.095% |
| COc1ccc(-c2cc3n(n2)CC(C)(C(=O)NCc2ccccc2OC)N(c2ccc(C)cc2)C3=O)cc1 (stereo not given) | 4.58% | 3.33% | 6.93% | 8.87% | 0.166% |
| Cc1cccc(NC(=O)Cn2nc3n(CC(C)C)c(=O)c4ccc(C(=O)NC5CCCC5)cc4n3c2=O)c1 | 5.65% | 2.76% | 12.1% | 6.68% | 8.43% |
| CN1CCc2cccc3c2C1Cc1ccc(O)c(O)c1-3 (stereo not given) | -88% | -3.31% | -14.5% | -13.9% | -4.46% |
| COc1cccc(C(=O)N2CCC(Oc3ccccc3-c3nc(C4CCOCC4)no3)C2)c1 (stereo not given) | -6.5% | -2.97% | -3.19% | -12.8% | -0.376% |
| CC#CCOC(=O)c1c(C)nc2sc3c(c2c1N)CCC(O)C3 (stereo not given) | -14.7% | 1.08% | -1.63% | -10.3% | 1.39% |
| Cc1ccccc1CNC(=O)C1(C)Cc2ccccc2C(=O)N1C1CCCCC1 (stereo not given) | 12.2% | 3.84% | 12.1% | 0.828% | 8.59% |
| CC(=O)OCCC(C)CCC1C(C)(O)CCC2C(C)(C)CCCC21C (stereo not given) | 0% | 7.81% | 4.32% | -13.3% | 4.02% |
| CCOC(=O)c1cc2n(n1)CC(C)(C(=O)NCc1ccc(F)cc1)N(Cc1cccc(OC)c1OC)C2=O (stereo not given) | 0.946% | 3.17% | 0.406% | 5.09% | 1.41% |
| CN1c2cc(C(N)=O)ccc2C(=O)N2CCCC21 (stereo not given) | -3.45% | 0.85% | 0.135% | -0.758% | 11.5% |
| O=C(CCc1nnn2c1CN(C(=O)NCCc1ccccc1)CC2)NC1CC1 | -0.2% | 0.832% | -4.28% | 0.49% | -0.809% |
| Oc1ccc2c(-c3c(-c4ccccn4)nn4c3CCC4)ccnc2c1 | -2.72% | -2.56% | -18.6% | -27.9% | -10.6% |
| CC(C)OCCCNC(=O)c1ccc2c(=O)[nH]c3c(C(=O)NC4CCCC4)sc(=S)n3c2c1 | -18.5% | 3.57% | -4.47% | -28.2% | -15.3% |
| CC[C@H]1OC(=O)[C@H](C)[C@@H](O[C@H]2C[C@@](C)(OC)[C@@H](O)[C@H](C)O2)[C@H](C)[C@@H](O[C@@H]2O[C@H](C)C[C@H](N(C)C)[C@H]2O)[C@](C)(O)C[C@@H](C)/C(=N/OCOCCOC)[C@H](C)[C@@H](O)[C@]1(C)O | 7.07% |  | 8.77% |  |  |
| C[C@@H]1CN(C(=O)c2cnc3sccn3c2=O)C[C@@]1(O)C1CCC1 | -5.57% | -3.79% | -1.06% | -3.06% | -2.52% |
| COc1ccc2cc3n(c2c1)CC(C)(C(=O)NC1CCCCCC1)N(CCCN1CC(C)CC(C)C1)C3=O (stereo not given) | 4.33% | -0.293% | 6.59% | 9.9% | -2.96% |
| CN1CCCCCCN(C(=O)Cn2c(=O)oc3ccccc32)[C@H]2CCC[C@H]2C1=O | -5.82% | -3.6% | -0.412% | -2.94% | -0.187% |
| NC(=O)c1sc(-c2ccsc2)cc1N |  | 2.33% |  | -13.3% | -6.4% |
| CCCn1c(=O)c2cc(F)ccc2n2c(SCc3ccccc3Cl)nnc12 | -21% | 4.1% | -1.43% | -9.88% | 1.72% |
| CCNC(=O)c1noc(-c2cc(Cl)c(O)cc2O)c1-c1ccc(OC)cc1 | 0.105% | 1.5% | 4.35% | -16.7% | -3.52% |

| SMILES | activity change, negative = inhibition [1] | activity change, negative = inhibition [2] | activity change, negative = inhibition [3] | activity change, negative = inhibition [4] | activity change, negative = inhibition [5] |
| --- | --- | --- | --- | --- | --- |
| Nc1nc2c(c(N3CCNCC3)n1)CCC1=C2[C@@H]2CCCC[C@@H]2O1 | -4.09% | 5.55% | -4.39% | -22.6% | 1.36% |
| CCCCCCCCCCC(C)(C)C(=O)Nc1c(OC)cc(OC)cc1OC | -18.3% | 7.63% | -4.45% | -8.26% | 6.13% |
| CCN(CC)CCCN1C(=O)c2cc3occc3n2CC1(C)C(=O)NC1CCCCCCC1 (stereo not given) | 2.58% | 0% | 1.76% | 6.26% | -0.251% |
| Cc1ccc(CNC(=O)CSc2nnc3n(CCC(C)C)c(=O)c4ccccc4n23)cc1 | 3.54% | 0% | 10.9% | 0.055% | 3.24% |
| N#CN1CCC[C@@H](n2nc(-c3ccc(Oc4ccc(F)cc4F)cc3)c(C(N)=O)c2N)C1 | -7.61% | 6.48% | 6.26% | -15.5% | 1.68% |
| CC1(C(=O)NC2CCCC2)Cn2c(ccc2-c2ccco2)C(=O)N1Cc1ccco1 (stereo not given) | -16.1% | 3.4% | -2.37% | -3.01% | -2.61% |
| CCC[C@H]1CN(Cc2c(C)noc2C)C[C@@H]1NC(=O)C1CCOCC1 | -1.56% | -0.924% | 1.25% | -5.73% | 0.266% |
| CC(O)C(=O)/C=C/C=C/C(=O)OC1C=C2COC(=O)C2(O)C2(C)CCCC(C)(C)C12 (stereo not given) | 2.23% | 4.88% | 5.45% | -6.61% | 4.85% |
| COC(=O)CNC(=O)c1nc(-c2ccccc2OC)c2cnccn12 | -8.99% | -4.85% | -11.5% | -11.7% | -1.64% |
| COc1ccc(-c2cc3n(n2)CC(C)(C(=O)NC2CCCCC2)N(Cc2ccc(F)cc2)C3=O)cc1 (stereo not given) | -1.24% | 1.95% | -0.683% | -4.08% | -8.98% |
| CC(C)CNC(=O)c1ccc2c(=O)n(C(C)C)c3nn(CC(=O)c4ccccc4)c(=O)n3c2c1 | 5.64% | 1.02% | 11% | 3.5% | 6.16% |
| CN=C(N)NCCC[C@H](N)C(=O)O | 2.52% | 13.4% | 2.92% | -2.77% | 4.82% |
| CC(C)NC(=O)c1ccc2c(=O)n(Cc3ccccc3)c3nnc(SCC(=O)NC4CCCC4)n3c2c1 | 3.53% | 4.39% | 7.87% | -0.328% | 2.46% |
| CC1(C(=O)NC2CCCC2)Cn2c(nc3ccccc32)C(=O)N1Cc1ccc2c(c1)OCO2 (stereo not given) | -0.218% | 1.63% | -4.34% | 2.11% | -3.3% |
| COc1ccc(C2=NOC(C(=O)N3CCN(c4ccc(F)cc4)CC3)C2)cc1 (stereo not given) | -5% | 0% | 0.348% | -0.725% | -4.91% |
| Cc1ccc(CN2CCC3(CC2)CC(c2ccccc2)C(=O)N3C)cc1F (stereo not given) | -7.14% | -15.2% | -5.5% | -23.9% | -9.17% |
| CCOC(=O)c1cc2n(n1)CC(C)(C(=O)NC1CCCCC1)N(c1ccc(Cl)cc1C)C2=O (stereo not given) | 0.59% | 4.82% | 0.836% | -0.717% | -2.29% |
| CC(C)(O)c1ccn2c(-c3ccc(F)c(-c4ccc(F)cc4C#N)c3)cnc2c1F | -2.26% | 10.1% | 0.422% | -42.2% | -3.12% |
| CC(C)(OC1OC(CO)C(O)C(O)C1O)C1CCC(O)(CO)C2CC(O)C(C)(O)C2C1 (stereo not given) | 1.89% | 6.08% | 10.6% | -6.67% | 5.65% |
